The text below walks through data of article PMC9911399, “Two distinct binding modes provide the RNA-binding protein RbFox with extraordinary sequence specificity”.

Residue numbers refer to the chain shown, from its start. Some of the results follow.

Sequences and labels used below:
T1: RBFOX1 RRM RbFoxmut (Fox-RRM*) (Homo sapiens, UniProt Q9NWB1 109-208, R118D;E147R;N151S;E152T)
T1 sequence: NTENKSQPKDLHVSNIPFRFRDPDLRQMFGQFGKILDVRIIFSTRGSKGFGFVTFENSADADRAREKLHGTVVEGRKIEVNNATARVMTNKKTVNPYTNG

B1: AUCCGUU (DNA:RNA)
RNA: GGGAGACCGGAAUUCAGAUUGUCCAUCCGUUUUAAAUCCCGUCGUAGCCACCA
DNA 1: CAATCTGAATTCCGGTCTCCC
DNA 2: TGGTGGCTACGACGGGATT
B2: UGCCCUC (DNA:RNA)
RNA: B1 RNA with A25U, U26G, G29C, U31C
DNA 1: CAATCTGAATTCCGGTCTCCC
DNA 2: TGGTGGCTACGACGGGATT
B3: CCAGCCG (DNA:RNA)
RNA: GGGAGACCGGAAUUCAGAUUGUCCCCAGCCGUUAAAUCCCGUCGUAGCCACCA
DNA 1: CAATCTGAATTCCGGTCTCCC
DNA 2: TGGTGGCTACGACGGGATT
B4: CCGACGA (DNA:RNA)
RNA: B3 RNA with A27G, G28A, C30G, G31A
DNA 1: CAATCTGAATTCCGGTCTCCC
DNA 2: TGGTGGCTACGACGGGATT
B5: AGGCGCA (DNA:RNA)
RNA: B1 RNA with U26G, C27G, U30C, U31A
DNA 1: CAATCTGAATTCCGGTCTCCC
DNA 2: TGGTGGCTACGACGGGATT
B6: UUCAGGU (DNA:RNA)
RNA: B1 RNA with A25U, C28A, U30G
DNA 1: CAATCTGAATTCCGGTCTCCC
DNA 2: TGGTGGCTACGACGGGATT
B7: CUUCCAA (DNA:RNA)
RNA: B1 RNA with A25C, C27U, G29C, U30A, U31A
DNA 1: CAATCTGAATTCCGGTCTCCC
DNA 2: TGGTGGCTACGACGGGATT
B8: CAAGACA (DNA:RNA)
RNA: B3 RNA with C26A, C29A, G31A
DNA 1: CAATCTGAATTCCGGTCTCCC
DNA 2: TGGTGGCTACGACGGGATT
B9: CUGCCGU (DNA:RNA)
RNA: B1 RNA with A25C, C27G, G29C, U30G
DNA 1: CAATCTGAATTCCGGTCTCCC
DNA 2: TGGTGGCTACGACGGGATT
B10: AAGUCCG (DNA:RNA)
RNA: B3 RNA with C25A, C26A, A27G, G28U
DNA 1: CAATCTGAATTCCGGTCTCCC
DNA 2: TGGTGGCTACGACGGGATT
B11: UCGUACC (DNA:RNA)
RNA: B3 RNA with C25U, A27G, G28U, C29A, G31C
DNA 1: CAATCTGAATTCCGGTCTCCC
DNA 2: TGGTGGCTACGACGGGATT
B12: UCCUUAA (DNA:RNA)
RNA: B1 RNA with A25U, U26C, C28U, G29U, U30A, U31A
DNA 1: CAATCTGAATTCCGGTCTCCC
DNA 2: TGGTGGCTACGACGGGATT
B13: GAGGACG (DNA:RNA)
RNA: B3 RNA with C25G, C26A, A27G, C29A
DNA 1: CAATCTGAATTCCGGTCTCCC
DNA 2: TGGTGGCTACGACGGGATT
B14: CAGGGAG (DNA:RNA)
RNA: B3 RNA with C26A, A27G, C29G, C30A
DNA 1: CAATCTGAATTCCGGTCTCCC
DNA 2: TGGTGGCTACGACGGGATT
B15: GCGUAAG (DNA:RNA)
RNA: B3 RNA with C25G, A27G, G28U, C29A, C30A
DNA 1: CAATCTGAATTCCGGTCTCCC
DNA 2: TGGTGGCTACGACGGGATT
B16: AUAUGCG (DNA:RNA)
RNA: B1 RNA with C27A, C28U, U30C, U31G
DNA 1: CAATCTGAATTCCGGTCTCCC
DNA 2: TGGTGGCTACGACGGGATT
B17: GCUAAUU (DNA:RNA)
RNA: B1 RNA with A25G, U26C, C27U, C28A, G29A
DNA 1: CAATCTGAATTCCGGTCTCCC
DNA 2: TGGTGGCTACGACGGGATT
B18: UUGAUUA (DNA:RNA)
RNA: B1 RNA with A25U, C27G, C28A, G29U, U31A
DNA 1: CAATCTGAATTCCGGTCTCCC
DNA 2: TGGTGGCTACGACGGGATT
B19: ACUAUGU (DNA:RNA)
RNA: B1 RNA with U26C, C27U, C28A, G29U, U30G
DNA 1: CAATCTGAATTCCGGTCTCCC
DNA 2: TGGTGGCTACGACGGGATT
B20: UCCGGGA (DNA:RNA)
RNA: B1 RNA with A25U, U26C, C28G, U30G, U31A
DNA 1: CAATCTGAATTCCGGTCTCCC
DNA 2: TGGTGGCTACGACGGGATT
B21: CGAGCUU (DNA:RNA)
RNA: B3 RNA with C26G, C30U, G31U
DNA 1: CAATCTGAATTCCGGTCTCCC
DNA 2: TGGTGGCTACGACGGGATT
B22: AACUUGG (DNA:RNA)
RNA: B1 RNA with U26A, C28U, G29U, U30G, U31G
DNA 1: CAATCTGAATTCCGGTCTCCC
DNA 2: TGGTGGCTACGACGGGATT
B23: GGUGCGG (DNA:RNA)
RNA: B3 RNA with C25G, C26G, A27U, C30G
DNA 1: CAATCTGAATTCCGGTCTCCC
DNA 2: TGGTGGCTACGACGGGATT
B24: CGAUACA (DNA:RNA)
RNA: B3 RNA with C26G, G28U, C29A, G31A
DNA 1: CAATCTGAATTCCGGTCTCCC
DNA 2: TGGTGGCTACGACGGGATT
B25: GUUAGAA (DNA:RNA)
RNA: B1 RNA with A25G, C27U, C28A, U30A, U31A
DNA 1: CAATCTGAATTCCGGTCTCCC
DNA 2: TGGTGGCTACGACGGGATT
B26: AUACAGG (DNA:RNA)
RNA: B1 RNA with C27A, G29A, U30G, U31G
DNA 1: CAATCTGAATTCCGGTCTCCC
DNA 2: TGGTGGCTACGACGGGATT
B27: UGGAUAG (DNA:RNA)
RNA: B3 RNA with C25U, C26G, A27G, G28A, C29U, C30A
DNA 1: CAATCTGAATTCCGGTCTCCC
DNA 2: TGGTGGCTACGACGGGATT
B28: CCCUUUG (DNA:RNA)
RNA: B3 RNA with A27C, G28U, C29U, C30U
DNA 1: CAATCTGAATTCCGGTCTCCC
DNA 2: TGGTGGCTACGACGGGATT
B29: AACCCGU (DNA:RNA)
RNA: B1 RNA with U26A, G29C, U30G
DNA 1: CAATCTGAATTCCGGTCTCCC
DNA 2: TGGTGGCTACGACGGGATT
B30: AGCAUUU (DNA:RNA)
RNA: B1 RNA with U26G, C28A, G29U
DNA 1: CAATCTGAATTCCGGTCTCCC
DNA 2: TGGTGGCTACGACGGGATT
B31: CCGUAGA (DNA:RNA)
RNA: B3 RNA with A27G, G28U, C29A, C30G, G31A
DNA 1: CAATCTGAATTCCGGTCTCCC
DNA 2: TGGTGGCTACGACGGGATT

The target of the assay is T1, RBFOX1 RRM RbFoxmut (Fox-RRM*). As to the kind of experiment: EMSA; HiTS-Eq, 1 nM pool, 10 min; buffer printed only for the single-RNA assays: 10 mM Tris pH 7.5, 150 mM NaCl, 3.4 mM EDTA, 0.001% NP-40, 30 C. The settings on record: tags: His6 N-terminal (pET28a); label: 5' 32P. The essentials:
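Purified RbFox RRM, wild type or mutant, was incubated for 10 min in 50 µL with 1 nM of a 5′-radiolabelled RNA pool carrying 7 randomized nucleotides, whose flanks were annealed to DNA oligonucleotides, over a series of increasing protein concentrations. Unbound RNA was resolved on 8% native PAGE, cut out, reverse-transcribed, barcoded by PCR and sequenced on an Illumina HiSeq 2500. Relative association constants were derived from changes in read counts for each RNA species versus the control reaction and normalised to the cognate motif.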
A general note: Mobility shift assays separate free from complexed probe on a gel.
Turning to B1, the binding signal was 0.119 KA relative to UGCAUGU.

Consider B2, for which the binding signal was 0.0571 KA relative to UGCAUGU.

B3: the binding signal is 0.0831 KA relative to UGCAUGU.

Take B4: the binding signal is 0.0623 KA relative to UGCAUGU.

As for B5, the binding signal is 0.124 KA relative to UGCAUGU.

Turning to B6, the binding signal is 0.105 KA relative to UGCAUGU.

With B7, the binding signal is 0.0785 KA relative to UGCAUGU.

As to B8, the binding signal is 0.0634 KA relative to UGCAUGU.

On to B9, for which the binding signal is 0.0884 KA relative to UGCAUGU.

As for B10, the binding signal is 0.0832 KA relative to UGCAUGU.

With B11, the binding signal was 0.0903 KA relative to UGCAUGU.

For B12, the binding signal was 0.0966 KA relative to UGCAUGU.

As to B13, the binding signal was 0.0679 KA relative to UGCAUGU.

Turning to B14, the binding signal was 0.128 KA relative to UGCAUGU.

With B15, the binding signal is 0.106 KA relative to UGCAUGU.

For the molecule B16, the binding signal is 0.148 KA relative to UGCAUGU.

On to B17, for which the binding signal was 0.0831 KA relative to UGCAUGU.

As to B18, the binding signal is 0.128 KA relative to UGCAUGU.

For B19, the binding signal was 0.152 KA relative to UGCAUGU.

For the molecule B20, the binding signal was 0.0524 KA relative to UGCAUGU.

For the molecule B21, the binding signal was 0.107 KA relative to UGCAUGU.

As to B22, the binding signal is 0.0716 KA relative to UGCAUGU.

Take B23: the binding signal is 0.0972 KA relative to UGCAUGU.

In the case of B24, the binding signal was 0.0906 KA relative to UGCAUGU.

For the molecule B25, the binding signal was 0.104 KA relative to UGCAUGU.

Consider B26, for which the binding signal is 0.117 KA relative to UGCAUGU.

In the case of B27, the binding signal is 0.144 KA relative to UGCAUGU.

As for B28, the binding signal is 0.0801 KA relative to UGCAUGU.

For the molecule B29, the binding signal was 0.0816 KA relative to UGCAUGU.

For B30, the binding signal is 0.112 KA relative to UGCAUGU.

Take B31: the binding signal was 0.13 KA relative to UGCAUGU.
